Assay results from the BET-seq Pho4 binding data (Le et al. 2018).
Some of the results follow. These are noisy estimates, calculated here from bound and input reads.

These sequences were tested against T1, Pho4 (S. cerevisiae) (UniProt P07270) (assay: relative binding free energy (BET-seq); higher = weaker binding). Settings: reference: library average.
T1 sequence: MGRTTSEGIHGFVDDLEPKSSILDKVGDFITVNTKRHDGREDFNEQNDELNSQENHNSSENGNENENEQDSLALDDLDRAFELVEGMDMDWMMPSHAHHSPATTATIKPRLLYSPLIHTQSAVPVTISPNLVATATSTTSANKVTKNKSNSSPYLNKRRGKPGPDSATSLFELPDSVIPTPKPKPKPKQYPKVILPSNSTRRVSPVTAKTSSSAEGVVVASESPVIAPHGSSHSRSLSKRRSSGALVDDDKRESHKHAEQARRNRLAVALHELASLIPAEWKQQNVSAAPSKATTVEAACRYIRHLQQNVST

| Sequence | relative binding free energy [kcal/mol] |
| --- | --- |
| TGTATCACGTGGCGCA | 0 |
| GGTGCCACGTGGAGTA | -0.01 |
| CGTGACACGTGTAAGT | 0.11 |
| GTAGTCACGTGTTAAA | 0.25 |
| TGCAGCACGTGGCGGA | -0.17 |
| TTATGCACGTGCTTTA | -0.15 |
| AATTTCACGTGATTGA | 0.3 |
| TGGTCCACGTGGGGTC | -0.16 |
| GGGGTCACGTGATCAG | 0.16 |
| ATATCCACGTGTTATG | 0.03 |
| ATGCACACGTGGGAGG | 0.04 |
| CGTTGCACGTGGCGTA | 0.03 |
| GGCGACACGTGGGCTG | -0.2 |
| AGGTTCACGTGGTAGC | 0.15 |
| ATGGTCACGTGCACGT | 0 |
| GAGGTCACGTGGGTTG | 0.09 |
| GCAGGCACGTGGGGGG | -0.18 |
| GTCGTCACGTGATGGG | 0.24 |
| GTTTGCACGTGGATTC | 0.06 |
| CAGTTCACGTGGAATT | 0.43 |
| TGTTGCACGTGCTACG | -0.1 |
| TTTTTCACGTGCTGCA | 0.24 |
| GTGGACACGTGGGCTT | -0.05 |
| TAGGGCACGTGGTCGA | -0.24 |
| GTCAGCACGTGGAGTG | -0.1 |

| Sequence | relative binding free energy [kcal/mol] |
| --- | --- |
| TCGTGCACGTGAGTGG | 0.07 |
| ATAGACACGTGGGGAG | -0.09 |
| TAGGCCACGTGACGGG | -0.09 |
| TAATGCACGTGTACTT | -0.06 |
| TATGCCACGTGGGGCA | -0.23 |
| AACAGCACGTGAGGTT | 0.17 |
| GTGGTCACGTGGTCAT | 0.07 |
| TATGCCACGTGATAGT | 0.13 |
| AATAGCACGTGTGGCG | -0.05 |
| TGGTTCACGTGATAGA | 0.21 |
| GTGATCACGTGTGCAG | 0.1 |
| ATGGACACGTGTTGAA | 0.06 |
| CTTAGCACGTGTGGAT | 0.03 |
| GACGCCACGTGGTGGG | -0.18 |
| GAAAGCACGTGGATGG | -0.02 |
| TCTAGCACGTGGGTTA | -0.19 |
| TCGGTCACGTGGCAGG | -0.05 |
| ATTTTCACGTGGGTAC | 0.24 |
| TTCTACACGTGGTCGT | 0.01 |
| GTGGGCACGTGTTGAG | -0.1 |
| CCGATCACGTGGTGGG | 0.07 |
| GAGTGCACGTGTCCGG | 0.01 |
| TTAGACACGTGGCTGG | -0.03 |
| TGAGTCACGTGAGTTT | 0.36 |
| GGTAACACGTGGTCGT | 0.13 |

| Sequence | relative binding free energy [kcal/mol] |
| --- | --- |
| GCTAGCACGTGGCGGG | -0.07 |
| TTGTACACGTGATAAT | 0.41 |
| TGTGTCACGTGGCCGC | 0.01 |
| TAGGTCACGTGGGTGC | -0.01 |
| GGACACACGTGTTGTG | -0.07 |
| TATGGCACGTGAATCT | 0.18 |
| TTAATCACGTGTGAAA | 0.19 |
| CTAGGCACGTGTTTTG | -0.05 |
| GCGGGCACGTGTGGGT | 0.04 |
| TCTGTCACGTGATGGG | 0.27 |
| CAATTCACGTGTAAGT | 0.42 |
| ATCGGCACGTGTGCGT | -0.09 |
| TTAGTCACGTGTCTGA | 0.01 |
| GTTGTCACGTGATCGG | 0.27 |
| GTTGTCACGTGCCTGT | 0 |
| GAGACCACGTGGGAGT | 0.13 |
| AGGGACACGTGGGTGC | -0.2 |
| TTACGCACGTGTTAGT | -0.17 |
| TCGAGCACGTGGGAGT | -0.27 |
| TCCGGCACGTGTGTGA | 0.07 |
| CGTTACACGTGTGAAG | 0.24 |
| TGTGCCACGTGGTGTC | -0.21 |
| TTTTTCACGTGTTTGA | 0.26 |
| CGTTTCACGTGTTCTG | 0.17 |
| AGGCGCACGTGGTTAG | -0.17 |

| Sequence | relative binding free energy [kcal/mol] |
| --- | --- |
| AAGGCCACGTGTGGGC | -0.06 |
| CATATCACGTGTTGTG | 0.13 |
| GATTTCACGTGTAGGT | 0.42 |
| TGGGTCACGTGGACCG | -0.08 |
| CTAGTCACGTGGCGTT | -0.01 |
| GTGCCCACGTGGGTGT | -0.25 |
| ATGGTCACGTGATCAT | 0.16 |
| GATGTCACGTGTTTCA | 0.22 |
| TAGAGCACGTGGAAAG | 0.07 |
| AGCGTCACGTGGTATT | -0.11 |
| AGAGGCACGTGTTGTT | -0.08 |
| TGTGCCACGTGGGTTC | -0.22 |
| ATGGACACGTGTTTGC | 0.08 |
| AAATACACGTGTTGGT | 0.08 |
| AATTGCACGTGGAGGG | 0 |
| AGTTGCACGTGCTTGA | 0 |
| GGTATCACGTGTAATT | 0.13 |
| TGCGGCACGTGTAATA | 0.07 |
| GGGGACACGTGGAATT | 0.21 |
| GAGGTCACGTGTTGTA | 0.22 |
| GTCTTCACGTGGGGGT | 0.2 |
| GTCTTCACGTGGTGGA | 0.42 |
| GTCATCACGTGGGGCT | 0.1 |
| TTCTGCACGTGTTTCT | 0.13 |
| GCTGGCACGTGGAGCG | -0.07 |

| Sequence | relative binding free energy [kcal/mol] |
| --- | --- |
| ACATACACGTGGGAGG | 0.07 |
| CCGGGCACGTGTGTGT | -0.13 |
| TTTTACACGTGACTAT | 0.3 |
| TCGTTCACGTGTATAT | 0.23 |
| AGATTCACGTGTTTTA | 0.24 |
| TTTATCACGTGCTGGA | 0.04 |
| GAGTCCACGTGGGGGA | 0 |
| TGTGGCACGTGAGTAC | -0.01 |
| GCGATCACGTGTTGTA | 0.24 |
| TACTTCACGTGGGTTA | 0.15 |
| ATTTCCACGTGTATGT | 0.06 |
| GAATTCACGTGATAGT | 0.36 |
| AGGTGCACGTGGTGGC | -0.1 |
| ATTAGCACGTGATGTC | -0.01 |
| GGTGTCACGTGTAGTG | 0.17 |
| CGTGTCACGTGATTGG | 0.17 |
| TTTGACACGTGGGGCG | -0.16 |
| TTGTACACGTGGGAGC | -0.28 |
| TCAAGCACGTGTGGTT | -0.07 |
| AGGGGCACGTGCTTAG | -0.14 |
| TTTTTCACGTGATCTT | 0.17 |
| GGCGGCACGTGGCGGG | -0.1 |
| GGGGGCACGTGTTAGC | -0.2 |
| GGACGCACGTGGTGCT | -0.06 |
| AGGATCACGTGTAGAG | 0.04 |

| Sequence | relative binding free energy [kcal/mol] |
| --- | --- |
| GCTATCACGTGGTTGT | -0.02 |
| GGGATCACGTGTGGTC | 0.24 |
| TTTTGCACGTGTGTGG | 0.11 |
| TAATACACGTGTATTG | -0.11 |
| TATAGCACGTGCGTAT | -0.13 |
| TTAGGCACGTGGGGAA | -0.2 |
| CGGGTCACGTGTATAT | 0.16 |
| CATGTCACGTGGTAGT | -0.01 |
| GGTGTCACGTGTATAG | 0.17 |
| CGTGGCACGTGTGTCG | -0.09 |
| GACTACACGTGGTGTG | 0.11 |
| AGGTGCACGTGATTTG | 0.04 |
| ATGAGCACGTGTAGGG | -0.16 |
| GGAGTCACGTGTGCGG | 0.09 |
| GGATGCACGTGTAAGT | 0.1 |
| TATCTCACGTGGAGAG | 0.28 |
| GTAGCCACGTGGGTCG | -0.16 |
| ATAAACACGTGTGGGT | -0.01 |
| AGAAACACGTGGGTTG | -0.04 |
| ATGGTCACGTGTCTTT | 0.05 |
| TTGTTCACGTGTTGTC | 0.31 |
